Measured values reported in PubChem BioAssay AID1963576 (National Center for Advancing Translational Sciences (NCATS), 2024).
Screen size: about 46,000 compounds; about 60 (0.1%) were called active. About 3% were inconclusive and are not listed. Calls come from the whole dose curve; as a rule, active = well fitted inhibition curve with a large enough effect; inconclusive = small, poorly fitted or top-dose-only effect; inactive = no such curve, though single readings can be large or run the other way. This is one part of the list.

assay: Primary qHTS assay for Inhibitors of ovarian cancer metastasis using an organotypic tumor microenvironment (TME) model.; note: nearly all actives have a fitted effect of over 65% in size;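 for activity change, negative = inhibition: plate controls were DMSO wells for no effect and tomatine positive control wells for full effect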; conditions: SKOV3ip1-GFP adhesion/invasion on 3D omental model, fluorescence; series mostly up to 45.8 µM; activity change, negative = inhibition: at the top concentration
Method in brief: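 A 3D layer of primary human omental fibroblasts, mesothelial cells, fibronectin and collagen I, grown 48 hr, received SKOV3ip1-GFP cells in serum-free medium plus compounds at 0.36-46 umol/L. After 2 hr RT and 16 hr 37 C, fixed adherent GFP cells were counted; normalized to DMSO and tomatine.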

Row | SMILES | activity change, negative = inhibition | outcome
1 | Cc1ccc(-c2nn(C)c(=O)c3ccccc23)cc1S(=O)(=O)NCCCN(C)C | inactive: 6.88% | 
2 | COC(=O)c1ccc(-c2nc(-c3ccc(OC)c(OC)c3)no2)cc1 | inactive: -6.34% | 
3 | CCc1ccc(C(=O)NC2=NC(c3cc(OC)ccc3OC)CC(=O)N2)cc1 (stereo not drawn) |  | inactive
4 | Cc1nc2ccc(S(=O)(=O)NC(C(=O)N3CCN(c4cccc(Cl)c4)CC3)C(C)C)cc2s1 (stereo not drawn) |  | inactive
5 | Cc1ccc(-c2onc(C)c2C)cc1S(=O)(=O)Nc1cccc(Cl)c1C | inactive: -20.7% | 
6 | COc1ccc(N2C(=O)CCSC23C(=O)N(Cc2ccc(F)cc2)c2ccccc23)cc1 (stereo not drawn) |  | inactive
7 | Cc1ccc(CCNC(=O)CCn2nc(-c3ccc(Cl)cc3)ccc2=O)cc1 | inactive: -3.7% | 
8 | O=C(c1ccc2c(c1)N(Cc1ccc(Cl)cc1)C(=O)c1ccccc1S2(=O)=O)N1CCN(Cc2ccccc2)CC1 |  | inactive
9 | Cc1cc(C)cc(NC(=O)CCc2c(C)nc3c(c2C)c(=O)n(C)c(=O)n3C)c1 | inactive: -2.9% | 
10 | CCc1ccc(-n2nc(CO)c(C(=O)NCc3cccnc3)n2)cc1 | inactive: -0.34% | 
11 | COc1cc2ncc3c(-c4ccccc4)nn(CC(=O)NC4CCCCC4)c3c2cc1OC | inactive: -0.0435% | 
12 | CC1CCN(S(=O)(=O)c2cc(C(=O)NCc3ccccc3)n(C)c2)CC1 |  | inactive
13 | COCCNC(=O)c1cnn(-c2cccc(C)c2)c1-n1cccc1 |  | inactive
14 | Cc1cn2c(=O)c(S(=O)(=O)Nc3ccc(N4CCOCC4)cc3)c(C)nc2s1 | inactive: 2.86% | 
15 | Cc1nc(N2CCCC2)ncc1C(=O)NCc1ccc(F)cc1 | inactive: -2.55% | 
16 | Cc1ccc2occ(CC(=O)Nc3ccc(Cl)c(C(F)(F)F)c3)c2c1 | inactive: -6.57% | 
17 | Cc1cc(N2CCC(C(=O)Nc3ccccc3Cl)CC2)n2nc(C)c(-c3ccc(Cl)cc3)c2n1 | inactive: 4.92% | 
18 | Fc1cccc(-c2nnn3c2nc(NCc2ccc4c(c2)OCO4)c2ccccc23)c1 | inactive: -6.06% | 
19 | CCC(CC)C(=O)Nc1nnc(S(=O)(=O)N2c3ccccc3CC2C)s1 (stereo not drawn) | inactive: -7.31% | 
20 | COc1ccc(C(=O)NNc2ncnc3c2cnn3-c2ccc(C)cc2C)cc1 |  | inactive
21 | CN(C(=O)c1ccc2c(c1)N(Cc1ccc(F)cc1)C(=O)c1ccccc1S2(=O)=O)C1CCCCC1 |  | inactive
22 | CCOCCCn1c(=N)c(C(=O)NC(C)c2ccccc2)cc2c(=O)n3cccc(C)c3nc21 (stereo not drawn) | inactive: 24.7% | 
23 | COc1ccc(C2=C(C)C(N3CCN(c4ccc(OC)cc4)CC3)=NS2(=O)=O)cc1 | inactive: -3.31% | 
24 | CCc1ccc(CN(C(=O)Nc2cccc(Cl)c2)c2ccccn2)cc1 | inactive: -13% | 

Row | SMILES | activity change, negative = inhibition | outcome
25 | CCOC(=O)Cn1c(=O)oc2cc(S(=O)(=O)NC(C)c3ccccc3)ccc21 (stereo not drawn) |  | inactive
26 | Cc1c(Cl)cccc1NS(=O)(=O)c1ccc(NS(=O)(=O)c2ccc3c(c2)OCCO3)cc1 | inactive: 26.9% | 
27 | COc1ccc(Cl)cc1NC(=O)c1cnc(N2CCCCC2)c2ccccc12 | inactive: -9.26% | 
28 | COc1ccccc1CNC(=O)c1ccc(-n2c(C)cc3c2CCCC3)cc1 | inactive: 2.22% | 
29 | O=C(NCCS(=O)(=O)c1ccc(C(F)(F)F)cn1)c1ccc(Cl)cc1 | inactive: -15% | 
30 | O=C(c1ccccc1F)N1c2nc(-c3ccco3)nn2C2(CCCCC2)[C@@H]2CCCC[C@@H]21 |  | inactive
31 | CCCCOC(=O)/C(C#N)=C\c1ccc(-c2ccc(Cl)cc2)o1 | inactive: 1.01% | 
32 | CCOc1ccc(NC(=O)CCn2cccn2)cc1 | inactive: -10.1% | 
33 | CCOC(=O)c1ccccc1NC(=O)N1CC(C)Oc2ccc(C)cc21 (stereo not drawn) | inactive: 0.229% | 
34 | CCOc1ccc(NC(=O)C2CCN(S(=O)(=O)c3c(C)noc3/C=C/c3ccco3)CC2)cc1 | inactive: -16.3% | 
35 | CC(C)CC(=O)Nc1n[nH]c2c1CN(C(=O)C1CCN(C)CC1)C2(C)C | inactive: -0.941% | 
36 | COc1cc(NC(=O)C(=O)Nc2ccc3nc4n(c(=O)c3c2)CCCCC4)cc(OC)c1OC | inactive: -28.2% | 
37 | O=C(Nc1ccc(Br)cc1)C1CCN(c2ncccn2)CC1 |  | inactive
38 | Cc1ccc(-c2nc3ccccn3c2Nc2ccc3c(c2)OCCO3)o1 | inactive: -5.79% | 
39 | O=C1CN(C(=O)COc2ccc(Cl)cc2)C(c2ccc(F)cc2)c2cc(Cl)ccc2N1 (stereo not drawn) | inactive: -3.8% | 
40 | CCOC(=O)N1CCN(C(=O)c2ccc3c(c2)N(Cc2cccc(Cl)c2)C(=O)c2ccccc2S3=O)CC1 (stereo not drawn) | inactive: 21.3% | 
41 | CC(=O)c1ccc(C(=O)N(Cc2cccnc2)c2nc3c(C)c(C)ccc3s2)cc1 | inactive: -2.08% | 
42 | CCOC(=O)c1cc(-c2ccc(OC)cc2)n(CCC(=O)NCc2ccc(OC)cc2)c1C |  | inactive
43 | Cc1ccc(C)c(NC(=O)CN(C)S(=O)(=O)c2ccc3c(c2)CCC(=O)N3)c1 | inactive: 5.31% | 
44 | CC(C)NC(=O)N1CCN(S(=O)(=O)c2ccc3c(ccn3C)c2)CC1 |  | inactive
45 | Cc1ccccc1C(=O)Nc1nnc2n1CCS2 | inactive: 5.38% | 
46 | OCc1ccccc1O[C@@H]1O[C@H](CO)[C@H](O)[C@H](O)[C@H]1O | inactive: -8.58% | 
47 | CCCS(=O)(=O)c1nc(S(=O)(=O)c2ccc(C)cc2)c(N(C)Cc2ccccc2)s1 | inactive: 6.65% | 
48 | Cc1ccc(C(=O)c2cn(CC(=O)NCc3ccccc3Cl)c3nc(C)ccc3c2=O)cc1 |  | inactive
